From the antibiotic and cytotoxicity screens of Wong et al. (2023)
The other results are listed elsewhere or left out.

Test system: S. aureus RN4220
Assay: growth inhibition call (relative growth <= 0.2)
Conditions: 50 µM

Growth inhibition call, inactive:
O=c1cc(-c2ccccc2)ss1
C[C@H](CO)N1C[C@H](C)[C@H](CN(C)C(=O)Nc2ccc(F)cc2)Oc2c(NC(=O)c3cnccn3)cccc2C1=O
COc1cccc(C#Cc2ccc3c(c2)O[C@H](CN(C)S(=O)(=O)c2ccccc2F)[C@@H](C)CN([C@@H](C)CO)S3(=O)=O)c1
C[C@@H]1CN([C@@H](C)CO)C(=O)c2cccc(NS(=O)(=O)c3cn(C)cn3)c2O[C@@H]1CN(C)CC1CCCCC1
COc1ccccc1CN1C[C@@H](C)[C@H](OC)CN(C)C(=O)c2ccc(NC(=O)Nc3ccccc3OC)cc2OC[C@H]1C
